Reference: the supplement of paper PMC8728848
Some of the results follow.

Key:
Test in all cases: glycan array binding signal (z-score within array); higher = stronger binding
Settings in all cases: glycan notation: IUPAC condensed, linker removed
Neu5Ac(a2-8)Neu5Ac = target: Neu5Ac(a2-8)Neu5Ac
Summary of the method: (§1)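 The binding signal is a Z-score computed within each array. Data were drawn from 3228 arrays in the Consortium for Functional Glycomics database, restricted to those with a known protein sequence. Scores were averaged over arrays of the same protein sequence at different concentrations or buffers, and over linkers, and negative values can be taken as non-binding.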

[1] = target: Neu5Ac(a2-8)Neu5Ac(a2-3)Gal(b1-3)GalNAc(b1-4)[Neu5Ac(a2-3)]Gal(b1-4)Glc
Summary of the method: as §1

[2] = target: Neu5Ac(a2-8)Neu5Ac(a2-3)Gal(b1-3)GalNAc(b1-4)[Neu5Ac(a2-8)Neu5Ac(a2-3)]Gal(b1-4)Glc
Summary of the method: as §1

[3] = target: Neu5Ac(a2-8)Neu5Ac(a2-3)Gal(b1-4)Glc
Summary of the method: as §1

[4] = target: Neu5Ac(a2-8)Neu5Ac(a2-3)Gal(b1-4)GlcNAc
Summary of the method: as §1

[5] = target: Neu5Ac(a2-8)Neu5Ac(a2-3)[Gal(b1-3)GalNAc(b1-4)]Gal(b1-4)Glc
Summary of the method: as §1

[6] = target: Neu5Ac(a2-8)Neu5Ac(a2-3)[GalNAc(b1-4)]Gal(b1-4)Glc
Summary of the method: as §1

[7] = target: Neu5Ac(a2-8)Neu5Ac(a2-8)Neu5Ac
Summary of the method: as §1

[8] = target: Neu5Ac(a2-8)Neu5Ac(a2-8)Neu5Ac(a2-3)Gal(b1-4)Glc
Summary of the method: as §1

[9] = target: Neu5Ac(a2-8)Neu5Ac(a2-8)Neu5Ac(a2-3)[Gal(b1-3)GalNAc(b1-4)]Gal(b1-4)Glc
Summary of the method: as §1

[10] = target: Neu5Ac(a2-8)Neu5Ac(a2-8)Neu5Ac(a2-3)[GalNAc(b1-4)]Gal(b1-4)Glc
Summary of the method: as §1

[11] = target: Neu5Ac(a2-8)Neu5Ac(a2-8)Neu5Ac(a2-8)Neu5Ac(a2-3)[GalNAc(b1-4)]Gal(b1-4)Glc
Summary of the method: as §1

[12] = target: Neu5Ac(a2-8)Neu5Gc(a2-3)Gal(b1-4)GlcNAc
Summary of the method: as §1

[13] = target: Neu5Ac(b2-6)Gal(b1-4)GlcNAc
Summary of the method: as §1

Neu5Ac(b2-6)GalNAc = target: Neu5Ac(b2-6)GalNAc
Summary of the method: as §1

[14] = target: Neu5Ac9Ac(a2-3)Gal(b1-3)GlcNAc
Summary of the method: as §1

[15] = target: Neu5Ac9Ac(a2-3)Gal(b1-4)GlcNAc
Summary of the method: as §1

[16] = target: Neu5Ac9Ac(a2-6)Gal(b1-4)GlcNAc
Summary of the method: as §1

[17] = target: Neu5Gc(a2-3)Gal(b1-3)GlcNAc
Summary of the method: as §1

[18] = target: Neu5Gc(a2-3)Gal(b1-3)[Fuc(a1-4)]GlcNAc
Summary of the method: as §1

Neu5Gc(a2-3)Gal(b1-4)Glc = target: Neu5Gc(a2-3)Gal(b1-4)Glc
Summary of the method: as §1

[19] = target: Neu5Gc(a2-3)Gal(b1-4)GlcNAc
Summary of the method: as §1

[20] = target: Neu5Gc(a2-3)Gal(b1-4)GlcNAc(b1-3)Gal(b1-4)GlcNAc(b1-2)Man(a1-3)[Neu5Gc(a2-3)Gal(b1-4)GlcNAc(b1-3)Gal(b1-4)GlcNAc(b1-2)Man(a1-6)]Man(b1-4)GlcNAc(b1-4)GlcNAc
Summary of the method: as §1

[21] = target: Neu5Gc(a2-3)Gal(b1-4)[Fuc(a1-3)]GlcNAc
Summary of the method: as §1

[22] = target: Neu5Gc(a2-6)Gal(b1-4)GlcNAc
Summary of the method: as §1

Neu5Gc(a2-6)GalNAc = target: Neu5Gc(a2-6)GalNAc
Summary of the method: as §1

[23] = target: Neu5Gc(a2-8)Neu5Ac(a2-3)Gal(b1-4)GlcNAc
Summary of the method: as §1

[24] = target: Neu5Gc(a2-8)Neu5Gc(a2-3)Gal(b1-4)GlcNAc
Summary of the method: as §1

[25] = target: Neu5Gc(a2-8)Neu5Gc(a2-3)Gal(b1-4)GlcNAc(b1-3)Gal(b1-4)GlcNAc
Summary of the method: as §1

[26] = target: Neu5Gc(a2-8)Neu5Gc(a2-6)Gal(b1-4)GlcNAc
Summary of the method: as §1

[27] = target: Neu5Gc(b2-6)Gal(b1-4)GlcNAc
Summary of the method: as §1

B1: SP16665A-bot-344-23-344 (Bacteroides ovatus) (protein)
chain: SDNEFPDFDYQTVYFANQYGLRTIELGESEFVDNTLDNQHKMVIKAAWGGGYTNRNNVVINFKVDESLCDNLYFKDTDQPLVPMPASYYTLASDRIAIPKGQIMAGVEVQLTDDFFADEKSISENYVIPLLMTNVQGADSILQGKPVVENPVLTNAGDWSILPQNFVLYAVKYVNPWHGEYLRRGIDHATVAGTSKDIIRHEQFVENDEVVNISTKSMKDNLLTLKTKDESGKDISYTVRLSFAEDGSCTVHSGSQNVVVSGSGKFVSKGEKNSLGGKDRNAIYLDYTVNLTDNNIQLATKDTLVLRTRNVYGGKSLEVVRK
B1 was tested, and the “glycan array binding signal (z-score)” value (Neu5Ac(a2-8)Neu5Ac) was -0.247, the “glycan array binding signal (z-score)” value [1] was -0.497 and the “glycan array binding signal (z-score)” value [2] was 0.03. For the same binder, the “glycan array binding signal (z-score)” value [3] was -0.384, the “glycan array binding signal (z-score)” value [4] was -0.345 and the “glycan array binding signal (z-score)” value [5] was -0.083. For the same binder, the “glycan array binding signal (z-score)” value [6] was -0.466, the “glycan array binding signal (z-score)” value [7] was -0.123 and the “glycan array binding signal (z-score)” value [8] was -0.509. The “glycan array binding signal (z-score)” value [9] was -0.048, the “glycan array binding signal (z-score)” value [10] was -0.3 and the “glycan array binding signal (z-score)” value [11] was -0.366. For the same binder, the “glycan array binding signal (z-score)” value [12] was -0.21, the “glycan array binding signal (z-score)” value [13] was -0.305 and the “glycan array binding signal (z-score)” value (Neu5Ac(b2-6)GalNAc) was -0.463. The “glycan array binding signal (z-score)” value [14] was -0.51, the “glycan array binding signal (z-score)” value [15] was -0.391 and the “glycan array binding signal (z-score)” value [16] was -0.311. The “glycan array binding signal (z-score)” value [17] was -0.106, the “glycan array binding signal (z-score)” value [18] was -0.412 and the “glycan array binding signal (z-score)” value (Neu5Gc(a2-3)Gal(b1-4)Glc) was -0.1. For the same binder, the “glycan array binding signal (z-score)” value [19] was -0.188, the “glycan array binding signal (z-score)” value [20] was 0.181 and the “glycan array binding signal (z-score)” value [21] was 0.629. For the same binder, the “glycan array binding signal (z-score)” value [22] was -0.371, the “glycan array binding signal (z-score)” value (Neu5Gc(a2-6)GalNAc) was -0.285 and the “glycan array binding signal (z-score)” value [23] was 0.014. The “glycan array binding signal (z-score)” value [24] was -0.427, the “glycan array binding signal (z-score)” value [25] was -0.077 and the “glycan array binding signal (z-score)” value [26] was -0.088. The “glycan array binding signal (z-score)” value [27] was 0.645.
